Experimental data as given in patent publication EP0056458B1, “Nitrosourea derivatives, a process for preparing same and therapeutic compositions” (Tanabe Seiyaku Co., Ltd., priority 1981, dated 1982).
The name of at least one read-out is uncertain.

Test system: Ehrlich ascites carcinoma
Experiment: Preventive effect against the growth of Ehrlich ascites tumor (method A)
Format: in vivo, mice
Conditions: measured after 7 days
Method: (A) Preventive effect against the growth of Ehrlich ascites tumor:
10^6 tumor cells of Ehrlich ascites carcinoma were inoculated intraperitoneally into a group of five female mice (ICR mice, body weight: 19-23 g). A test compound was dissolved in a physiological saline solution. (In the case where CCNU was employed as the test compound, said compound was suspended in a physiological saline solution containing 0.1% NIKKOL HCO-60 (trademark; a surface active agent manufactured by Nikko Chemicals Co. Ltd.)) and administered intraperitoneally to the mice. The administration of the test compound was begun 24 hours after the inoculation of the tumor cells and performed once a day for 5 days. The volume of ascites in the treated mice were measured after 7 days of the experiment.

[1] = T (treated mice), dose 3.12 mg/kg/day i.p. x 5 days
[2] = T (treated mice), dose 6.25 mg/kg/day i.p. x 5 days
[3] = T (treated mice), dose 12.5 mg/kg/day i.p. x 5 days
[4] = T (treated mice; figure after the slash is untreated control C), dose 50 mg/kg/day i.p. x 5 days
[5] = T (treated mice), dose 0.19 mg/kg/day i.p. x 5 days
[6] = T (treated mice), dose 0.39 mg/kg/day i.p. x 5 days
[7] = T (treated mice), dose 0.78 mg/kg/day i.p. x 5 days
[8] = T (treated mice), dose 0.097 mg/kg/day i.p. x 5 days
[9] = T (treated mice), dose 0.195 mg/kg/day i.p. x 5 days
[10] = T (treated mice), dose 1.56 mg/kg/day i.p. x 5 days
[11] = T (treated mice), dose 25 mg/kg/day i.p. x 5 days

Row | Compound | Ascites volume (g) T/C [1] | Ascites volume (g) T/C [2] | Ascites volume (g) T/C [3] | Ascites volume (g) T/C [4] | Ascites volume (g) T/C [5] | Ascites volume (g) T/C [6] | Ascites volume (g) T/C [7] | Ascites volume (g) T/C [8] | Ascites volume (g) T/C [9] | Ascites volume (g) T/C [10] | Ascites volume (g) T/C [11] | Ascites volume (g) T/C (T (treated mice), dose 0.09 mg/kg/day i.p. x 5 days)
1 | O=NN(CCCl)C(=O)NC1CCCCC1 [CCNU, 1-(2-chloroethyl)-1-nitroso-3-cyclohexylurea, reference compound] | 4.5/5.7 g | 3.8/5.7 g | 0.0/5.7 g | 0.0/5.7 g | – | – | – | – | – | – | – | –
2 | CCCCN(C(=O)N(CCCl)N=O)[C@@H]1[C@@H](O)[C@@H](OC)O[C@H](CO)[C@H]1O [Compound 1, 1 - (2 - chloroethyl) - 1 - nitroso - 3 - n - butyl - 3 - (methyl 3 - deoxy - a - D - glucopyranosid - 3 - yl)urea] | 0.0/4.2 g | – | 0.0/4.2 g | 0.0/4.2 g | 3.6/4.2 g | 1.7/4.2 g | 0.0/4.2 g | – | – | – | – | –
3 | CO[C@H]1O[C@H](CO)[C@@H](O)[C@H](N(CC(C)C)C(=O)N(CCCl)N=O)[C@H]1O [Compound 2, 1 - (2 - chloroethyl) - 1 - nitroso - 3 - isobutyl - 3 - (methyl 3 - deoxy - a - D - glucopyranosid - 3 - yl)urea] | – | 0.0/3.7 g | – | – | – | 0.0/3.7 g | – | 3.4/3.7 g | 0.0/3.7 g | 0.0/3.7 g | 0.0/3.7 g | –
4 | CO[C@H]1O[C@H](CO)[C@@H](O)[C@H](N(C)C(=O)N(CCCl)N=O)[C@H]1O [Compound 3, 1 - (2 - chloroethyl) - 1 - nitroso - 3 - methyl - 3 - (methyl 3 - deoxy - a - D - glucopyranosid - 3 - yl)urea] | – | 0.0/3.7 g | – | – | – | 0.0/3.7 g | – | 3.6/3.7 g | 0.7/3.7 g | 0.0/3.7 g | 0.0/3.7 g | –
5 | C=CCN(C(=O)N(CCCl)N=O)[C@@H]1[C@@H](O)[C@@H](OC)O[C@H](CO)[C@H]1O [Compound 4, 1 - (2 - chloroethyl) -1 - nitroso - 3 - allyl - 3 - (methyl 3 - deoxy - α - D - glucopyranosid - 3 - yl)urea] | – | 0.0/3.7 g | – | – | – | 0.0/3.7 g | – | 2.6/3.7 g | 0.0/3.7 g | 0.0/3.7 g | 0.0/3.7 g | –
6 | C#CCN(C(=O)N(CCCl)N=O)[C@@H]1[C@@H](O)[C@@H](OC)O[C@H](CO)[C@H]1O [Compound 5, 1 - (2 - chloroethyl) - 1 - nitroso - 3 - propargyl - 3 - (methyl 3 - deoxy - a - D - glucopyranosid - 3 - yl)urea] | – | 0.0/3.7 g | – | – | – | 2.4/3.7 g | 0.0/3.7 g | – | – | 0.0/3.7 g | 0.0/3.7 g | –
7 | COCCN(C(=O)N(CCCl)N=O)[C@@H]1[C@@H](O)[C@@H](OC)O[C@H](CO)[C@H]1O [Compound 6, 1 - (2 - chloroethyl) - 1 - nitroso - 3 - (2 - methoxyethyl) - 3 - (methyl 3 - deoxy - a - D - glucopyranosid - 3 - yl)urea] | – | 0.0/3.7 g | – | – | – | 0.0/3.7 g | – | 3.7/3.7 g | 0.0/3.7 g | 0.0/3.7 g | 0.0/3.7 g | –
8 | O=NN(CCCl)C(=O)N[C@@H]1O[C@H](CO)[C@@H](O)[C@H](O)[C@H]1O [GANU, 1-(2-chloroethyl)-1-nitroso-3-β-(D-glucopyranosyl)urea, reference compound] | 0.0/4.8 g | – | 0.0/4.8 g | – | 1.0/4.8 g | 0.0/4.8 g | 0.0/4.8 g | – | – | – | – | 4.6/4.8 g
